Test results taken from US10299477B2 (priority 2015, dated 2019).

Legend:
Format in all cases: in vivo
Botrytis cinerea = experiment: Test Example B: Gray mold on tomato; settings: for Test B control value (gray mold on tomato): preventive, control value class; for Test B (control value class, gray mold on tomato): in vivo
From the text: [Test Example B] Gray Mold on Tomato
Seeds of a test plant (tomato variety: Oogata Fukuju) were planted followed by cultivating until three to five first leaves (true leaves) appeared.

Alternaia brassicicola = experiment: Test Example C: Alternaria sooty spot on cabbage; settings: for Test C control value (Alternaria sooty spot on cabbage): preventive, control value class; for Test C (control value class, Alternaria sooty spot on cabbage): in vivo
From the text: [Test Example C] Alternaria Sooty Spot on Cabbage
Seeds of a test plant (cabbage variety: Shikidori) were planted followed by cultivating until the cotyledons extended.

Plasmopara viticola = experiment: Test Example G: Downy mildew on vine; settings: for Test G control value (downy mildew on vine): 250 ppm spray (2.5 ml/pot), preventive, control value class; for Test G (control value class): 250 ppm spray; for Test G (control value class, downy mildew on vine): 250 ppm, sprayed 2.5 ml/pot before inoculation
From the text: [Test Example G] Downy Mildew on Vine
Seeds of a test plant (grape variety: Neomuscat) were planted followed by cultivating until three to four first leaves appeared. […] After the sprayed dilutions were dried, a zoosporangia suspension (1-2×10^4 zoosporangia/ml) of Plasmopara viticola was inoculated to the plants by spraying.

Puccinia recondita = experiment: Test Example E: Brown rust on wheat; settings: for Test E control value (brown rust on wheat): preventive, control value class; for Test E (control value class, brown rust on wheat): in vivo
From the text: [Test Example E] Brown Rust on Wheat

[1] = tested on: Blumeria graminis f sp. hordei; experiment: Test Example D: Powdery mildew on barley; settings: for Test D control value (powdery mildew on barley): preventive, control value class; for Test D (control value class, powdery mildew on barley): in vivo
From the text: [Test Example D] Powdery Mildew on Barley
After the sprayed dilutions were dried, conidia of Blumeria graminis f sp. hordei were inoculated to the plants by shaking off.

[2] = Gray mold on tomato, control value=100{1-(n/3)}
[3] = Alternaria sooty spot on cabbage, control value=100{1-(n/3)}
[4] = Downy mildew on vine, 2.5 ml/pot, evaluated 7-10 days after inoculation
[5] = Brown rust on wheat, control value=100{1-(n/3)}
[6] = Powdery mildew on barley, control value=100{1-(n/3)}
[7] = evaluated 7-10 days after inoculation

CCn1c(-c2c(F)cccc2F)c(-c2cccc(Cl)c2Cl)ccc1=O [Compound 349]
Test B control value (gray mold on tomato) (Botrytis cinerea; 250 ppm spray): H (H shows more than 50% of control values)
Test C control value (Alternaria sooty spot on cabbage) (Alternaia brassicicola; 250 ppm spray): H (H shows more than 50% of control values)
Test G control value (downy mildew on vine) (Plasmopara viticola; 7-10 days after inoculation): H (H shows more than 50% of control values)
Test E control value (brown rust on wheat) (Puccinia recondita; 250 ppm spray): H (H shows more than 50% of control values)
Test D control value (powdery mildew on barley) ([1]; 250 ppm spray): H (H shows more than 50% of control values)

COC(=O)Oc1ccc(Cl)c(-c2ccc(=O)n(C)c2-c2c(F)cccc2F)c1 [Compound 298]
Test B control value (gray mold on tomato) (Botrytis cinerea; 250 ppm spray): H (H shows more than 50% of control values)
Test C control value (Alternaria sooty spot on cabbage) (Alternaia brassicicola; 250 ppm spray): H (H shows more than 50% of control values)
Test G control value (downy mildew on vine) (Plasmopara viticola; 7-10 days after inoculation): L (L shows 50% or less of control values)
Test E control value (brown rust on wheat) (Puccinia recondita; 250 ppm spray): H (H shows more than 50% of control values)
Test D control value (powdery mildew on barley) ([1]; 250 ppm spray): H (H shows more than 50% of control values)

CCOc1ccc(Cl)c(-c2cc(C)c(=O)n(CC)c2-c2c(F)cccc2F)c1 [Compound 802]
Test B (control value class) (Botrytis cinerea; [2]): H (H shows more than 50% of control values)
Test C (control value class) (Alternaia brassicicola; [3]): H (H shows more than 50% of control values)
Test G (control value class) (Plasmopara viticola; [4]): H (H shows more than 50% of control values)
Test E (control value class) (Puccinia recondita; [5]): H (H shows more than 50% of control values)
Test D (control value class) [1, 6]: H (H shows more than 50% of control values)

C=CCOc1ccc(Cl)c(-c2ccc(=O)n(CC)c2-c2c(F)cccc2F)c1 [Compound 313]
Test B control value (gray mold on tomato) (Botrytis cinerea; 250 ppm spray): H (H shows more than 50% of control values)
Test C control value (Alternaria sooty spot on cabbage) (Alternaia brassicicola; 250 ppm spray): H (H shows more than 50% of control values)
Test G control value (downy mildew on vine) (Plasmopara viticola; 7-10 days after inoculation): L (L shows 50% or less of control values)
Test E control value (brown rust on wheat) (Puccinia recondita; 250 ppm spray): H (H shows more than 50% of control values)
Test D control value (powdery mildew on barley) ([1]; 250 ppm spray): H (H shows more than 50% of control values)

CCn1c(-c2c(F)cc(Br)cc2F)c(-c2cc(OC)cc(OC)c2Cl)ccc1=O [Compound 201]
Test B control value (gray mold on tomato) (Botrytis cinerea; 250 ppm spray): H (H shows more than 50% of control values)
Test C control value (Alternaria sooty spot on cabbage) (Alternaia brassicicola; 250 ppm spray): H (H shows more than 50% of control values)
Test G control value (downy mildew on vine) (Plasmopara viticola; 7-10 days after inoculation): H (H shows more than 50% of control values)
Test E control value (brown rust on wheat) (Puccinia recondita; 250 ppm spray): H (H shows more than 50% of control values)
Test D control value (powdery mildew on barley) ([1]; 250 ppm spray): H (H shows more than 50% of control values)

CCn1c(-c2c(F)cc(OC)cc2F)c(-c2cc(OC)cc(OC)c2Cl)ccc1=O [Compound 716]
Test B (control value class, gray mold on tomato) (Botrytis cinerea): H (H shows more than 50% of control values)
Test C (control value class, Alternaria sooty spot on cabbage) (Alternaia brassicicola): H (H shows more than 50% of control values)
Test G (control value class, downy mildew on vine) (Plasmopara viticola; [7]): H (H shows more than 50% of control values)
Test E (control value class, brown rust on wheat) (Puccinia recondita): H (H shows more than 50% of control values)
Test D (control value class, powdery mildew on barley) [1]: H (H shows more than 50% of control values)

CCn1c(-c2c(F)cc(F)cc2F)c(-c2cc(OCC#N)ccc2Cl)cc(Cl)c1=O [Compound 794]
Test B (control value class) (Botrytis cinerea; [2]): H (H shows more than 50% of control values)
Test C (control value class) (Alternaia brassicicola; [3]): H (H shows more than 50% of control values)
Test G (control value class) (Plasmopara viticola; [4]): H (H shows more than 50% of control values)
Test E (control value class) (Puccinia recondita; [5]): H (H shows more than 50% of control values)
Test D (control value class) [1, 6]: H (H shows more than 50% of control values)

CCn1c(-c2c(F)cc(OC)cc2F)c(-c2cc(F)c(F)cc2F)cc(Cl)c1=O [Compound 637]
Test B (control value class, gray mold on tomato) (Botrytis cinerea): H (H shows more than 50% of control values)
Test C (control value class, Alternaria sooty spot on cabbage) (Alternaia brassicicola): H (H shows more than 50% of control values)
Test G (control value class, downy mildew on vine) (Plasmopara viticola; [7]): H (H shows more than 50% of control values)
Test E (control value class, brown rust on wheat) (Puccinia recondita): H (H shows more than 50% of control values)
Test D (control value class, powdery mildew on barley) [1]: H (H shows more than 50% of control values)

COc1ccc(-c2ccc(=O)n(C)c2-c2c(F)cccc2F)c(Cl)c1 [Compound 740]
Test B (control value class, gray mold on tomato) (Botrytis cinerea): H (H shows more than 50% of control values)
Test C (control value class, Alternaria sooty spot on cabbage) (Alternaia brassicicola): H (H shows more than 50% of control values)
Test G (control value class, downy mildew on vine) (Plasmopara viticola; [7]): H (H shows more than 50% of control values)
Test E (control value class, brown rust on wheat) (Puccinia recondita): H (H shows more than 50% of control values)
Test D (control value class, powdery mildew on barley) [1]: L (L shows 50% or less of control values)

CCN1C(=O)CCC(c2cccc(F)c2)=C1c1c(F)cccc1F [Compound 156]
Test B control value (Botrytis cinerea; Gray mold on tomato): H (H shows more than 50% of control values)
Test C control value (Alternaia brassicicola; Alternaria sooty spot on cabbage): H (H shows more than 50% of control values)
Test G control value (Plasmopara viticola; Downy mildew on vine, 250 ppm sprayed before inoculation, 7-10 days after inoculation): H (H shows more than 50% of control values)
Test E control value (Puccinia recondita; Brown rust on wheat): H (H shows more than 50% of control values)
Test D control value ([1]; Powdery mildew on barley): H (H shows more than 50% of control values)

CCn1c(-c2c(F)cc(F)cc2F)c(-c2cccc(OC)c2Cl)cc(C)c1=O [Compound 632]
Test B (control value class, gray mold on tomato) (Botrytis cinerea): H (H shows more than 50% of control values)
Test C (control value class, Alternaria sooty spot on cabbage) (Alternaia brassicicola): H (H shows more than 50% of control values)
Test G (control value class, downy mildew on vine) (Plasmopara viticola; [7]): L (L shows 50% or less of control values)
Test E (control value class, brown rust on wheat) (Puccinia recondita): H (H shows more than 50% of control values)
Test D (control value class, powdery mildew on barley) [1]: H (H shows more than 50% of control values)

CCN1C(=O)CCC(c2ccc(F)cc2Cl)=C1c1c(F)cc(F)cc1F [Compound 573]
Test B (control value class, gray mold on tomato) (Botrytis cinerea): H (H shows more than 50% of control values)
Test C (control value class, Alternaria sooty spot on cabbage) (Alternaia brassicicola): H (H shows more than 50% of control values)
Test G (control value class, downy mildew on vine) (Plasmopara viticola; [7]): L (L shows 50% or less of control values)
Test E (control value class, brown rust on wheat) (Puccinia recondita): H (H shows more than 50% of control values)
Test D (control value class, powdery mildew on barley) [1]: H (H shows more than 50% of control values)

CCn1c(-c2c(F)cc(OC)cc2F)c(-c2ccccc2Br)cc(Cl)c1=O [Compound 668]
Test B (control value class, gray mold on tomato) (Botrytis cinerea): H (H shows more than 50% of control values)
Test C (control value class, Alternaria sooty spot on cabbage) (Alternaia brassicicola): H (H shows more than 50% of control values)
Test G (control value class, downy mildew on vine) (Plasmopara viticola; [7]): H (H shows more than 50% of control values)
Test E (control value class, brown rust on wheat) (Puccinia recondita): H (H shows more than 50% of control values)
Test D (control value class, powdery mildew on barley) [1]: H (H shows more than 50% of control values)

CCOc1cc(F)c(-c2c(-c3cccc(F)c3C)cc(Br)c(=O)n2CC)c(F)c1 [Compound 712]
Test B (control value class, gray mold on tomato) (Botrytis cinerea): H (H shows more than 50% of control values)
Test C (control value class, Alternaria sooty spot on cabbage) (Alternaia brassicicola): H (H shows more than 50% of control values)
Test G (control value class, downy mildew on vine) (Plasmopara viticola; [7]): H (H shows more than 50% of control values)
Test E (control value class, brown rust on wheat) (Puccinia recondita): H (H shows more than 50% of control values)
Test D (control value class, powdery mildew on barley) [1]: H (H shows more than 50% of control values)

CCn1c(-c2c(F)cccc2F)c(-c2cc(F)ccc2F)cc(Br)c1=O [Compound 482]
Test B (control value class) (Botrytis cinerea; gray mold on tomato, Botrytis cinerea, 250 ppm spray): L (L shows 50% or less of control values)
Test C (control value class) (Alternaia brassicicola; Alternaria sooty spot on cabbage, 250 ppm spray): H (H shows more than 50% of control values)
Test G (control value class) (Plasmopara viticola; downy mildew on vine, Plasmopara viticola, 7-10 days after inoculation): L (L shows 50% or less of control values)
Test E (control value class) (Puccinia recondita; brown rust on wheat, Puccinia recondita, 250 ppm spray): H (H shows more than 50% of control values)
Test D (control value class) ([1]; powdery mildew on barley, 250 ppm spray): L (L shows 50% or less of control values)

CCn1c(-c2c(F)cc(F)cc2F)c(-c2cccc(F)c2F)cc(Cl)c1=O [Compound 566]
Test B (control value class, gray mold on tomato) (Botrytis cinerea): H (H shows more than 50% of control values)
Test C (control value class, Alternaria sooty spot on cabbage) (Alternaia brassicicola): H (H shows more than 50% of control values)
Test G (control value class, downy mildew on vine) (Plasmopara viticola; [7]): H (H shows more than 50% of control values)
Test E (control value class, brown rust on wheat) (Puccinia recondita): H (H shows more than 50% of control values)
Test D (control value class, powdery mildew on barley) [1]: H (H shows more than 50% of control values)
